In paper PMC12276331 (2025):

Key:
Assay in all cases: single bond, SMFS Bell-Evans
hIgG4 = molecular target: hIgG4
hIgG2B = molecular target: hIgG2B
hIgG2A = molecular target: hIgG2A
hIgG1 = molecular target: hIgG1

B1: transmembrane hCD40 receptor expressed on the surface of CHO cells (CHO-CD40-GFP) (receptor)
chain: [about 150 residues not written out]ALVVIPIIFGILFAILLVLVFIKKVAKKPTNKAPHPKQEPQEINFPDDLPGSNTAAPVQETLHGCQPVTQEDGKESRISVQERQ
A koff (hIgG4) of 0.041 s⁻¹, a koff (hIgG2B) of 0.03 s⁻¹ and a koff (hIgG2A) of 0.029 s⁻¹ were found for B1 in this work. It also gave a koff (hIgG1) of 0.041 s⁻¹.
